Among all 110,000 compounds or so, about 40 (0.04%) were called active. The inconclusive results got no clear call from the source; some entries with a clear call stand among them for comparison. Calls follow the shape of the dose curve; as a rule, active = well fitted curve in the direction sought with a large enough effect in the signal ratio (not every such curve was filed as active); inconclusive = small, poorly fitted or top-dose-only effect, or a change in a side signal; inactive = flat fitted curve, though single readings scatter; the % refers to the signal ratio. A potency beside an inconclusive call is a rough fit, not a confirmed value.
Assay: IkB Signaling;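 as to IkBa stabilization activation: 0% = basal untreated cells and 100% = reference inhibitor full response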
Settings: ABC-DLBCL IkBa-CBG/CBR dual luciferase ratio (green luciferase fused to IkBa over red control in OCI-Ly3 lymphoma cells), 4 h; IkBa stabilization activation: at 57.1 µM (top of the series), scaled: untreated 0%, proteasome inhibitor 100% unless noted
Outline: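 Curves were fitted separately to fusion (green), unfused (red) and ratio luminescence, then classed by r2, magnitude and activity. Cells: OCI-Ly3, 4 h compound plus doxycycline at 37C; 10 uM MG-132 defined full response.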
With `Cc1ccccc1CN1C(=O)C(O)(c2c[nH]c3ccccc23)c2cc(Cl)ccc21` (stereo not drawn) the IkBa stabilization activation was inconclusive: -3.03% [signal inhibitor].
For `O=C(c1ccc2c(c1)N(Cc1ccccc1)C(=O)c1ccccc1S2(=O)=O)N1CCC(Cc2ccccc2)CC1`, the IkBa stabilization activation was inconclusive: 3.78% [signal inhibitor].
For `Cc1cc(C)c(NC(=O)Cn2nnc3sc4c(c3c2=O)CCC(C(C)(C)C)C4)c(C)c1` (stereo not drawn), the IkBa stabilization activation was “inactive”.
With `CCCCN1C(C(=O)c2ccccc2)=C(OC(=O)CC)c2ccccc2S1(=O)=O` the IkBa stabilization activation was inconclusive: -2.68% [signal inhibitor].
For `CC1CCN(c2nc3ccccc3nc2SCC(=O)Nc2ccccc2C(C)C)CC1`, the IkBa stabilization activation was inconclusive: 0.288% [signal inhibitor].
In the case of `CCCN1CCN(c2ncnc3sc(C(=O)Nc4ccc(OC(F)(F)F)cc4)c(C)c23)CC1`, the IkBa stabilization activation is reported as inconclusive: -4.27% [signal inhibitor].
In the case of `CCCCN(CC)CCCNC(=O)c1ccc2c(c1)N(Cc1ccc(C)cc1)C(=O)c1ccccc1S2`, the IkBa stabilization activation is reported as “inactive”.
For `CCOc1ccc(C(=O)c2cn(CC(=O)Nc3ccc(C)c(Cl)c3)c3ccc(OCC)cc3c2=O)cc1`, the IkBa stabilization activation was inconclusive: 0.69% [signal inhibitor].
With `O=C(NC1(C(F)(F)F)N=C(c2ccccc2)N(Cc2ccccc2)C1=O)c1ccc(F)cc1` (stereo not drawn) the IkBa stabilization activation was inconclusive: 1.55% [signal inhibitor].
With `O=C(Nc1nc(-c2ccncc2)cs1)C1COc2ccccc2O1` (stereo not drawn) the Potency was inconclusive: 39.8 µM [signal inhibitor, single point].
In the case of `COc1ncc2nc(-c3cccs3)c(=O)n(C)c2n1`, the IkBa stabilization activation is reported as inactive: -3.13% [at 11.4 µM, scaled: untreated 0%, proteasome inhibitor 100%].
With `Cc1cc(-c2ccc(C)c(S(=O)(=O)Nc3ccc(C)c(N(C)C)c3)c2)on1` the IkBa stabilization activation was inconclusive: 5.43% [signal inhibitor].
For `COc1cc2ccccc2cc1C(=O)Nc1ccc(N2CCN(C)CC2)cc1`, the IkBa stabilization activation was “inactive”.
With `COc1cc(C(=O)Nc2ccc(NC(=O)C3CC3)nc2)cc(OC)c1OC` the IkBa stabilization activation was “inactive”.
For `COc1ccc(C)cc1NS(=O)(=O)c1ccc2c(c1)CCCN2C(C)=O`, the IkBa stabilization activation was “inactive”.
For `COc1ccc2cc3c(N)c(C(=O)N4CCCC4)sc3nc2c1`, the IkBa stabilization activation was inconclusive: 7.72% [signal inhibitor].
In the case of `C=CCn1c(-c2ccc(Cl)cc2)c[nH]c1=S`, the Potency is reported as inconclusive: 1.58 µM [signal inhibitor, partial curve].
In the case of `COc1ccc(-c2nc(SCC(=O)NCC3CCCO3)c(-c3ccc(C)cc3)[nH]2)cc1OC` (stereo not drawn), the IkBa stabilization activation is reported as inconclusive: 4.96% [signal inhibitor].
Potency is read from the fitted curve at half-maximal effect.
